# From article PMC5341729 (Molecular Biology of the Cell, 2017)
# Molecular target: T1, MYO10-TPRN^BAIT (taperin fused to MYO10^HMM) (mouse, UniProt A2AI08 1-749)
# T1 sequence: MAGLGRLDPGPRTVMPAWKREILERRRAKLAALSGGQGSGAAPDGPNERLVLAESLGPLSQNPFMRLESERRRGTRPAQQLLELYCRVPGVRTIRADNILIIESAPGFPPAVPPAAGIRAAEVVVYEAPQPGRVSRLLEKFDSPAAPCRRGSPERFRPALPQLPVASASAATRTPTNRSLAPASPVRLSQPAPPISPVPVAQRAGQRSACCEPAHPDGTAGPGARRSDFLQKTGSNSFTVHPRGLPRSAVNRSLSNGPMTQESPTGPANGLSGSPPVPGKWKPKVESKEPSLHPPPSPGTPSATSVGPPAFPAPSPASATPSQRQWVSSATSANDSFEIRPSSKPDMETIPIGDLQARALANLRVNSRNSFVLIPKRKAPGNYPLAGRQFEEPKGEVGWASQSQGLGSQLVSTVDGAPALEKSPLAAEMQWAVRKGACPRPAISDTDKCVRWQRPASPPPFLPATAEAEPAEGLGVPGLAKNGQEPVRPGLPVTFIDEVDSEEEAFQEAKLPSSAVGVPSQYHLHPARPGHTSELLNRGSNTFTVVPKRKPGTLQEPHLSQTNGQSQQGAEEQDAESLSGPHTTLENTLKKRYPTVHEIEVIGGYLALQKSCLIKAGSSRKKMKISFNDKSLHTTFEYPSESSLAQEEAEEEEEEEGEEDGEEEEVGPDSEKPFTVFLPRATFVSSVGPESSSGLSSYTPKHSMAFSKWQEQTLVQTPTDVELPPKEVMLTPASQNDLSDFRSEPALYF
# Assay: NanoSPD
binder,measurement,value
PPP1CC^PREY (natural protein) not shown,fold increase of prey fluorescence at filopodial tips against MYO10^(NO BAIT),5.7 fold
